Assay results reported in the supplement of paper PMC9174493.
The other results are listed elsewhere or left out. Single values of this set are uncertain. Values with irradiation are relative to irradiated vehicle.

system: A549-Dual; assay: NF-kB reporter (SEAP) activity, viability-corrected, relative to vehicle (fold change vs vehicle); higher = more activation of STING-IRF / NF-kB immune response reporter; conditions: 0.3 µM; irradiation: none
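Further: viability correction based on the alamar blue assay, with concentrations leaving 10% survival or less dropped.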

| SMILES | NF-kB reporter |
| --- | --- |
| CC1=C(CC(=O)O)c2cc(F)ccc2/C1=C\c1ccc(S(C)=O)cc1 (stereo not given) [Sulindac] | 0.901 |
| C1N2CN3CN1CN(C2)C3 [Methenamine] | 1.11 |
| COc1ccc2cc(C(C)C(=O)[O-])ccc2c1.[Na+] (stereo not given) [Naproxen Sodium] | 1.52 |
| Cc1ccc(Cl)c(Nc2ccccc2C(=O)[O][Na])c1Cl [Meclofenamate Sodium] | 1.17 |
| O=C(OCCOCCO)c1ccccc1Nc1cccc(C(F)(F)F)c1 [Etofenamate] | 0.946 |
| O=C([O-])c1cc(N=Nc2ccc(O)c(C(=O)[O-])c2)ccc1O.[Na+].[Na+] [Olsalazine Sodium] | 0.779 |
| CC(=O)Nc1ccc(OC(=O)c2ccccc2OC(C)=O)cc1 [Benorylate] | 0.73 |
| CO/N=C(\C(=O)NC1C(=O)N2C(C(=O)OCOC(=O)C(C)(C)C)=C(C)CSC12)c1csc(N)n1.Cl (stereo not given) [Cefetamet pivoxil hydrochloride] | 0.806 |
| CCC(C(=O)O)c1ccc(N2Cc3ccccc3C2=O)cc1 (stereo not given) [Indobufen] | 0.769 |
| CS(=O)(=O)O.Cc1ccc(NC(=O)c2ccc(CN3CCN(C)CC3)cc2)cc1Nc1nccc(-c2cccnc2)n1 [Imatinib Mesylate (STI571)] | 1.12 |
| CC(C(=O)O)c1ccc(C(=O)c2ccccc2)s1 (stereo not given) [Tiaprofenic acid] | 1.79 |
| CCc1nc(N)nc(N)c1-c1ccc(Cl)cc1 [Pyrimethamine] | 1.68 |
| COc1cc(C2c3cc4c(cc3C(OC3OC5COC(C)OC5C(O)C3O)C3COC(=O)C23)OCO4)cc(OC)c1O (stereo not given) [Etoposide] | 1.68 |
| CN(C)CCC(c1ccc(Br)cc1)c1ccccn1.O=C(O)/C=C\C(=O)O (stereo not given) [Brompheniramine hydrogen maleate] | 1.61 |
| CC12CCC3c4ccc(O)cc4CC(CCCCCCCCCS(=O)CCCC(F)(F)C(F)(F)F)C3C1CCC2O (stereo not given) [Fulvestrant] | 1.13 |
| O=C([O-])CC(O)(CC(=O)[O-])C(=O)[O-].O=C([O-])CC(O)(CC(=O)[O-])C(=O)[O-].[BiH6+3].[K+].[K+].[K+] [Gastrodenol] | 1.29 |
| CCCCC1(COC(=O)CCC(=O)O)C(=O)N(c2ccccc2)N(c2ccccc2)C1=O [Suxibuzone] | 1.28 |
| O=C(O)Cc1ccccc1Nc1c(Cl)cccc1Cl.OCCN1CCCC1 [Diclofenac Epolamine] | 0.644 |
| Cl.N=C1CCCN1Cc1[nH]c(=O)[nH]c(=O)c1Cl.O=c1[nH]c(=O)n(C2CC(O)C(CO)O2)cc1C(F)(F)F.O=c1[nH]c(=O)n(C2CC(O)C(CO)O2)cc1C(F)(F)F (stereo not given) | 1.24 |
| NC(CO)(CO)CO [Trometamol] | 0.639 |

| SMILES | NF-kB reporter |
| --- | --- |
| COc1ccc2c(c1)c(CC(=O)O)c(C)n2C(=O)c1ccc(Cl)cc1 [Indomethacin] | 1.26 |
| Cn1cnc([N+](=O)[O-])c1Sc1ncnc2nc[nH]c12 [Azathioprine] | 1.42 |
| NCCNc1ccc(NCCN)c2c1C(=O)c1ccncc1C2=O.O=C(O)/C=C\C(=O)O.O=C(O)/C=C\C(=O)O [Pixantrone Maleate] | 1.59 |
| CC(=O)Oc1cccc2c1C(=O)c1c(OC(C)=O)cc(C(=O)O)cc1C2=O [Diacerein] | 0.825 |
| CNCC(O)c1ccc(O)c(O)c1.O=C(O)C(O)C(O)C(=O)O (stereo not given) [Epinephrine bitartrate] | 1.55 |
| CC1(C(=O)O)CCC2(C)CCC3(C)C(=CC(=O)C4C5(C)CCC(OC6OC(C(=O)O)C(O)C(O)C6OC6OC(C(=O)O)C(O)C(O)C6O)C(C)(C)C5CCC43C)C2C1.N.N (stereo not given) [Diammonium Glycyrrhizinate] | 1.64 |
| CCCCCCCCCCCCCCCCCCOP(=O)([O-])OC1CC[N+](C)(C)CC1 [Perifosine (KRX-0401)] | 1.16 |
| COc1c2occc2cc2ccc(=O)oc12 [Methoxsalen] | 1.15 |
| O=C(O)CCCN1CCC(OC(c2ccc(Cl)cc2)c2ccccn2)CC1 (stereo not given) [Bepotastine] | 1.6 |
| CN(C)CCCOc1nn(Cc2ccccc2)c2ccccc12.Cl [Benzydamine HCl] | 0.651 |
| CC(C(=O)O)c1ccc2c(c1)[nH]c1ccc(Cl)cc12 (stereo not given) [Carprofen] | 0.747 |
| COc1cc2nccc(Oc3ccc(NC(=O)Nc4cc(C)on4)c(Cl)c3)c2cc1OC [Tivozanib (AV-951)] | 0.978 |
| Oc1ccc(/C=C/c2cc(O)cc(O)c2)cc1 [Resveratrol] | 1.3 |
| Nc1cccc2c1C(=O)N(C1CCC(=O)NC1=O)C2=O (stereo not given) [Pomalidomide] | 0.988 |
| COc1cc(C2c3cc4c(cc3C(OC3OC5COC(c6cccs6)OC5C(O)C3O)C3COC(=O)C23)OCO4)cc(OC)c1O (stereo not given) [Teniposide] | 1.36 |
| S=c1nc[nH]c2nc[nH]c12 [Mercaptopurine (6-MP)] | 0.914 |
| CC(C(=O)O)c1ccc2c(c1)CC(=O)c1ccccc1S2 (stereo not given) [Zaltoprofen] | 1.59 |
| Cc1nc(Nc2ncc(C(=O)Nc3c(C)cccc3Cl)s2)cc(N2CCN(CCO)CC2)n1.Cl [Dasatinib hydrochloride] | 0.968 |
| O=c1[nH]cc(F)c(=O)[nH]1 [Fluorouracil (5-Fluoracil, 5-FU)] | 1.01 |
| COc1cc(/C=C/C(=O)/C=C(O)/C=C/c2ccc(O)c(OC)c2)ccc1O [Curcumin] | 1.2 |
